{
  "source": "the supplement of paper PMC8728848",
  "binders": {"B1": {"name": "CPA (Cicer arietinum) (protein)", "chain": "MAFSYLNLVLVTLTTLFFLQTTKVKSQKSVSFHITNFTISRPSITLQGTAEFLPNVLLLNDIEHPVFVVGRALYSKPITLWNNKTGKVASFVTSFTFDVQDLKKTVPGHGLVFFLAPSGSEIPFSSDGGNLGVVDGKNAFNRFVGVEFDNFVNSWDPKYSHVGINVNSLISTKTVKWNRVSGELVKVSIVYDSVSTTLTVIVTYKNGQISILSQLVDLKAVLPDTVNIGFSASTTLVSPRQLHNIHSWSFTSTFET"}},
  "assay_in_all_cases": "glycan array binding signal (z-score within array); higher = stronger binding",
  "conditions_in_all_cases": "glycan notation: IUPAC condensed, linker removed",
  "key": {"Fuc(a1-2)Gal": {"biological_target": "Fuc(a1-2)Gal", "procedure,_shortened": "(§1)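 The binding signal is a Z-score computed within each array and averaged over linkers. Arrays of the same protein sequence at different concentrations or buffers were also averaged together. Data originate from 3228 arrays in the Consortium for Functional Glycomics database, kept only where the protein sequence was available.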"}, "Fuc(a1-2)Gal(b1-3)GalNAc": {"biological_target": "Fuc(a1-2)Gal(b1-3)GalNAc", "procedure,_shortened": "as §1"}, "[1]": {"biological_target": "Fuc(a1-2)Gal(b1-3)GalNAc(a1-3)[Fuc(a1-2)]Gal(b1-4)Glc", "procedure,_shortened": "as §1"}, "[2]": {"biological_target": "Fuc(a1-2)Gal(b1-3)GalNAc(a1-3)[Fuc(a1-2)]Gal(b1-4)GlcNAc", "procedure,_shortened": "as §1"}, "[3]": {"biological_target": "Fuc(a1-2)Gal(b1-3)GalNAc(b1-3)Gal", "procedure,_shortened": "as §1"}, "[4]": {"biological_target": "Fuc(a1-2)Gal(b1-3)GalNAc(b1-3)Gal(a1-4)Gal(b1-4)Glc", "procedure,_shortened": "as §1"}, "[5]": {"biological_target": "Fuc(a1-2)Gal(b1-3)GalNAc(b1-4)[Neu5Ac(a2-3)]Gal(b1-4)Glc", "procedure,_shortened": "as §1"}, "Fuc(a1-2)Gal(b1-3)GlcNAc": {"biological_target": "Fuc(a1-2)Gal(b1-3)GlcNAc", "procedure,_shortened": "as §1"}, "[6]": {"biological_target": "Fuc(a1-2)Gal(b1-3)GlcNAc(b1-2)Man(a1-3)[Fuc(a1-2)Gal(b1-3)GlcNAc(b1-2)Man(a1-6)]Man(b1-4)GlcNAc(b1-4)GlcNAc", "procedure,_shortened": "as §1"}, "[7]": {"biological_target": "Fuc(a1-2)Gal(b1-3)GlcNAc(b1-2)Man(a1-3)[Fuc(a1-2)Gal(b1-3)GlcNAc(b1-2)Man(a1-6)]Man(b1-4)GlcNAc(b1-4)[Fuc(a1-6)]GlcNAc", "procedure,_shortened": "as §1"}, "[8]": {"biological_target": "Fuc(a1-2)Gal(b1-3)GlcNAc(b1-3)Gal(b1-4)Glc", "procedure,_shortened": "as §1"}, "[9]": {"biological_target": "Fuc(a1-2)Gal(b1-3)GlcNAc(b1-3)GalNAc", "procedure,_shortened": "as §1"}, "[10]": {"biological_target": "Fuc(a1-2)Gal(b1-3)GlcNAc(b1-3)[Fuc(a1-2)Gal(b1-3)GlcNAc(b1-6)]GalNAc", "procedure,_shortened": "as §1"}, "[11]": {"biological_target": "Fuc(a1-2)Gal(b1-3)GlcNAc(b1-3)[Gal(b1-4)GlcNAc(b1-6)]Gal(b1-4)Glc", "procedure,_shortened": "as §1"}, "[12]": {"biological_target": "Fuc(a1-2)Gal(b1-3)GlcNAc(b1-3)[Neu5Ac(a2-6)Gal(b1-4)GlcNAc(b1-6)]Gal(b1-4)Glc", "procedure,_shortened": "as §1"}, "[13]": {"biological_target": "Fuc(a1-2)Gal(b1-3)GlcNAc6S", "procedure,_shortened": "as §1"}, "[14]": {"biological_target": "Fuc(a1-2)Gal(b1-3)[Fuc(a1-4)]GlcNAc", "procedure,_shortened": "as §1"}, "[15]": {"biological_target": "Fuc(a1-2)Gal(b1-3)[Fuc(a1-4)]GlcNAc(b1-2)Man(a1-3)[Fuc(a1-2)Gal(b1-3)[Fuc(a1-4)]GlcNAc(b1-2)Man(a1-3)]Man(b1-4)GlcNAc(b1-4)GlcNAc", "procedure,_shortened": "as §1"}, "[16]": {"biological_target": "Fuc(a1-2)Gal(b1-3)[Fuc(a1-4)]GlcNAc(b1-2)Man(a1-3)[Fuc(a1-2)Gal(b1-3)[Fuc(a1-4)]GlcNAc(b1-2)Man(a1-6)]Man(b1-4)GlcNAc(b1-4)[Fuc(a1-6)]GlcNAc(b1-4)[Fuc(a1-6)]GlcNAc", "procedure,_shortened": "as §1"}, "[17]": {"biological_target": "Fuc(a1-2)Gal(b1-3)[Fuc(a1-4)]GlcNAc(b1-3)[Fuc(a1-3)[Gal(b1-4)]GlcNAc(b1-6)]Gal(b1-4)Glc", "procedure,_shortened": "as §1"}, "[18]": {"biological_target": "Fuc(a1-2)Gal(b1-3)[Fuc(a1-4)]GlcNAc(b1-3)[Gal(b1-4)GlcNAc(b1-6)]Gal(b1-4)Glc", "procedure,_shortened": "as §1"}, "Fuc(a1-2)Gal(b1-4)Glc": {"biological_target": "Fuc(a1-2)Gal(b1-4)Glc", "procedure,_shortened": "as §1"}, "Fuc(a1-2)Gal(b1-4)Glc6S": {"biological_target": "Fuc(a1-2)Gal(b1-4)Glc6S", "procedure,_shortened": "as §1"}, "Fuc(a1-2)Gal(b1-4)GlcNAc": {"biological_target": "Fuc(a1-2)Gal(b1-4)GlcNAc", "procedure,_shortened": "as §1"}, "[19]": {"biological_target": "Fuc(a1-2)Gal(b1-4)GlcNAc(b1-2)Man", "procedure,_shortened": "as §1"}, "[20]": {"biological_target": "Fuc(a1-2)Gal(b1-4)GlcNAc(b1-2)Man(a1-3)[Fuc(a1-2)Gal(b1-4)GlcNAc(b1-2)Man(a1-6)]Man(b1-4)GlcNAc(b1-4)GlcNAc", "procedure,_shortened": "as §1"}, "[21]": {"biological_target": "Fuc(a1-2)Gal(b1-4)GlcNAc(b1-2)Man(a1-3)[Fuc(a1-2)Gal(b1-4)GlcNAc(b1-2)Man(a1-6)]Man(b1-4)GlcNAc(b1-4)[Fuc(a1-6)]GlcNAc", "procedure,_shortened": "as §1"}, "[22]": {"biological_target": "Fuc(a1-2)Gal(b1-4)GlcNAc(b1-2)[Fuc(a1-2)Gal(b1-4)GlcNAc(b1-4)]Man(a1-3)[Fuc(a1-2)Gal(b1-4)GlcNAc(b1-2)Man(a1-6)]Man(b1-4)GlcNAc(b1-4)GlcNAc", "procedure,_shortened": "as §1"}, "[23]": {"biological_target": "Fuc(a1-2)Gal(b1-4)GlcNAc(b1-3)Gal(b1-4)GlcNAc", "procedure,_shortened": "as §1"}, "[24]": {"biological_target": "Fuc(a1-2)Gal(b1-4)GlcNAc(b1-3)Gal(b1-4)GlcNAc(b1-2)Man(a1-3)[Fuc(a1-2)Gal(b1-4)GlcNAc(b1-3)Gal(b1-4)GlcNAc(b1-2)Man(a1-6)]Man(b1-4)GlcNAc(b1-4)GlcNAc", "procedure,_shortened": "as §1"}},
  "note": "The other results are listed elsewhere or left out.",
  "data": [
    {"binder": "B1", "values": [
      {"measurement": "glycan array binding signal (z-score)", "setting": "Fuc(a1-2)Gal", "result": -0.377},
      {"measurement": "glycan array binding signal (z-score)", "setting": "Fuc(a1-2)Gal(b1-3)GalNAc", "result": -0.424},
      {"measurement": "glycan array binding signal (z-score)", "setting": "[1]", "result": -0.583},
      {"measurement": "glycan array binding signal (z-score)", "setting": "[2]", "result": -0.277},
      {"measurement": "glycan array binding signal (z-score)", "setting": "[3]", "result": -0.196},
      {"measurement": "glycan array binding signal (z-score)", "setting": "[4]", "result": -0.651},
      {"measurement": "glycan array binding signal (z-score)", "setting": "[5]", "result": -0.356},
      {"measurement": "glycan array binding signal (z-score)", "setting": "Fuc(a1-2)Gal(b1-3)GlcNAc", "result": -0.561},
      {"measurement": "glycan array binding signal (z-score)", "setting": "[6]", "result": 3.79},
      {"measurement": "glycan array binding signal (z-score)", "setting": "[7]", "result": -0.045},
      {"measurement": "glycan array binding signal (z-score)", "setting": "[8]", "result": -0.59},
      {"measurement": "glycan array binding signal (z-score)", "setting": "[9]", "result": -0.558},
      {"measurement": "glycan array binding signal (z-score)", "setting": "[10]", "result": 1.04},
      {"measurement": "glycan array binding signal (z-score)", "setting": "[11]", "result": -0.239},
      {"measurement": "glycan array binding signal (z-score)", "setting": "[12]", "result": -0.283},
      {"measurement": "glycan array binding signal (z-score)", "setting": "[13]", "result": -0.242},
      {"measurement": "glycan array binding signal (z-score)", "setting": "[14]", "result": -0.329},
      {"measurement": "glycan array binding signal (z-score)", "setting": "[15]", "result": 0.392},
      {"measurement": "glycan array binding signal (z-score)", "setting": "[16]", "result": -0.262},
      {"measurement": "glycan array binding signal (z-score)", "setting": "[17]", "result": -0.54},
      {"measurement": "glycan array binding signal (z-score)", "setting": "[18]", "result": -0.072},
      {"measurement": "glycan array binding signal (z-score)", "setting": "Fuc(a1-2)Gal(b1-4)Glc", "result": -0.421},
      {"measurement": "glycan array binding signal (z-score)", "setting": "Fuc(a1-2)Gal(b1-4)Glc6S", "result": -0.116},
      {"measurement": "glycan array binding signal (z-score)", "setting": "Fuc(a1-2)Gal(b1-4)GlcNAc", "result": -0.329},
      {"measurement": "glycan array binding signal (z-score)", "setting": "[19]", "result": -0.729},
      {"measurement": "glycan array binding signal (z-score)", "setting": "[20]", "result": 0.406},
      {"measurement": "glycan array binding signal (z-score)", "setting": "[21]", "result": 0.297},
      {"measurement": "glycan array binding signal (z-score)", "setting": "[22]", "result": 0.366},
      {"measurement": "glycan array binding signal (z-score)", "setting": "[23]", "result": -0.178},
      {"measurement": "glycan array binding signal (z-score)", "setting": "[24]", "result": 0.012}
    ]}
  ]
}
